The text below walks through data of article PMC6602471.

Some of the results follow. At the low end of the ranking the order means little.

This experiment has as its target T1, ETS1 (UniProt P14921).
T1 sequence: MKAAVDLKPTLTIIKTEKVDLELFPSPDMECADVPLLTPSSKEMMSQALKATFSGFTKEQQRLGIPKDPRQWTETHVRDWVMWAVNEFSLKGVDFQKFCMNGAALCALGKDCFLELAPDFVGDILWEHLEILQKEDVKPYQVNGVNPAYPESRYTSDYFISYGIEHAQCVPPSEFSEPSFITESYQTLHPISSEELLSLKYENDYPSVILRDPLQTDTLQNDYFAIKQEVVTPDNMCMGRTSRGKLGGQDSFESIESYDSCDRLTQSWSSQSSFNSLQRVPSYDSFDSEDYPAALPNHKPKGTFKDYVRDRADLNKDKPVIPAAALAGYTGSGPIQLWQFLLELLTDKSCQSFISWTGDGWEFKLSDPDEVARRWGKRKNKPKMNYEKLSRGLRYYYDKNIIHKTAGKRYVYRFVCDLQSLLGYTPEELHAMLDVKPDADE
Kind of experiment: custom PBM. The note with it: custom protein-binding microarray; buffer, salt, pH and temperature not stated; high values mean tight binding; double strand, one strand shown.
Consider “TAAAGGGGAGACGGTTGTGGTAGTTCCGGGTATTAAGTCTTGATTCGCTTGACGCTGCTG”, for which the binding signal (log fluorescence intensity) worked out at 8.23.
For “CACAATTTTTACACTAATGTAGCACGCGTAACTCCTGTCTTGATTCGCTTGACGCTGCTG” the value was 8.14.
As for “GATTAATGTCTGCCCTTATTCGCACGTGCCATAACAGTCTTGATTCGCTTGACGCTGCTG”, the binding signal (log fluorescence intensity) was 8.17.
The result for “CTCGGACTTGACCCAACTCTGCCACGTGGGTCGTTTGTCTTGATTCGCTTGACGCTGCTG” reads 8.17.
For “GCTGCTGCGGTGCATACCCCCCCGGATGTGACCCCGGTCTTGATTCGCTTGACGCTGCTG” the value was 8.71; for “CAGCATAGGACTTCTTCCCTGATGCAATTGATAACCGTCTTGATTCGCTTGACGCTGCTG”, 8.16; for “CGGAAGTGTCGTAAACGTCGGATATCCGGTTCTCCTGTCTTGATTCGCTTGACGCTGCTG”, 11.8.
The result for “CTGGGTCTTGACCCAACTCTGCCACGTGGGTCGTTTGTCTTGATTCGCTTGACGCTGCTG” reads 8.39.
Take “TAAAGGGAAGACGGTTGTAGTAGTTCCGGGTATTAAGTCTTGATTCGCTTGACGCTGCTG”: the binding signal (log fluorescence intensity) amounted to 8.81.
For “CAGCTTAGGACTTCTTCCCTGAAGCAATTGATAACCGTCTTGATTCGCTTGACGCTGCTG”, the binding signal (log fluorescence intensity) came to 8.12.
The result for “TCCGGCTACCAGCTCCACCCCCTTCAGGCCTTGTAGGTCTTGATTCGCTTGACGCTGCTG” reads 8.13.
The result for “TACTGACTTATATACGCGAATGCACATGAATAGACCGTCTTGATTCGCTTGACGCTGCTG” reads 8.08; that for “GATTAATTTCTGCACTTATTCGCACGTGCCATAACAGTCTTGATTCGCTTGACGCTGCTG”, 8.18; that for “CTGCGACTTGACCCAACTCTGCCACGTGGGTCGTTTGTCTTGATTCGCTTGACGCTGCTG”, 8.19.
The result for “CGGAAGTGTCGTAACCGTCGGATATCCGGTTCTTCTGTCTTGATTCGCTTGACGCTGCTG” reads 11.9; that for “GCTGCTGCGGTGCAGACCCCACCGGATGTGACCCCGGTCTTGATTCGCTTGACGCTGCTG”, 10.2; that for “CACAATTTTTACGGTAATGTAGCACGCGTAACTCCTGTCTTGATTCGCTTGACGCTGCTG”, 8.19.
Take “TAAAGGGCAGACGGTTGTGGTAGTTCCGGGTATTAAGTCTTGATTCGCTTGACGCTGCTG”: the binding signal (log fluorescence intensity) came out at 8.09.
For “CACAATTTTTACAGTAATGTAGCACGCGAAACTCCTGTCTTGATTCGCTTGACGCTGCTG” the value was 8.22; for “TACTTACTTATATATGCGAATGCACATGAATAGACCGTCTTGATTCGCTTGACGCTGCTG”, 8.15; for “TGTCGGGTAAGGGAATGTAGTTCACGTGAATGAAAAGTCTTGATTCGCTTGACGCTGCTG”, 8.2.
Take “CGGAAGTGTCGTAAACGTCGGATATCCGGTTCTGCTGTCTTGATTCGCTTGACGCTGCTG”: the binding signal (log fluorescence intensity) stood at 11.8.
The result for “CTGGGACTTGACCCTACTCTGCCACGTGGGTCGTTTGTCTTGATTCGCTTGACGCTGCTG” reads 8.26; that for “TCCGGCTACCAGCTCCACCCACTGCAGGCCTTGTAGGTCTTGATTCGCTTGACGCTGCTG”, 8.34; that for “TGTCGGGTAAGGGAATGTAAATCACGTGAATGAAAAGTCTTGATTCGCTTGACGCTGCTG”, 8.21.
The result for “TGTCGGGTAAGGGAATATAGATCACGTGAATGAAAAGTCTTGATTCGCTTGACGCTGCTG” reads 8.36.
For the sequence “CTGGGACATGACCCAACTCTGCCACGTGGGTCGTTTGTCTTGATTCGCTTGACGCTGCTG”, the binding signal (log fluorescence intensity) came out at 8.29.
The result for “CGGGAGTGTCGTAAACGTCGGATATCCGGTTCTTCTGTCTTGATTCGCTTGACGCTGCTG” reads 11.7; that for “TACTGACTTATATATGCGAATGGACATGAATAGACCGTCTTGATTCGCTTGACGCTGCTG”, 8.31; that for “CACAATTTTTACAGTAATGTAGCACTCGTAACTCCTGTCTTGATTCGCTTGACGCTGCTG”, 8.26.
The result for “CGGAAGTGTCGTAAACGTCGGATATCCGGTTCTTCGGTCTTGATTCGCTTGACGCTGCTG” reads 12; that for “TGACGGGTAAGGGAATGTAGATCACGTGAATGAAAAGTCTTGATTCGCTTGACGCTGCTG”, 8.13; that for “TCCGGCTACCAGCTCCACCCACTTAAGGCCTTGTAGGTCTTGATTCGCTTGACGCTGCTG”, 8.11.
In the case of “GTGTATAGGATACCATCCAACACACGTGTTAAAATGGTCTTGATTCGCTTGACGCTGCTG”, the binding signal (log fluorescence intensity) was determined as 8.24.
The result for “TAAAGGGAAGACGGTTGTTGTAGTTCCGGGTATTAAGTCTTGATTCGCTTGACGCTGCTG” reads 8.54; that for “CTGGGACTTGACCCAACTCTGCCACGTGGCTCGTTTGTCTTGATTCGCTTGACGCTGCTG”, 8.24; that for “TAAAGGGAAGACGGTTGTGGCAGTTCCGGGTATTAAGTCTTGATTCGCTTGACGCTGCTG”, 8.57.
For “GTGTATAGGATCCCGTCCAACACACGTGTTAAAATGGTCTTGATTCGCTTGACGCTGCTG” the value was 8.28; for “TACTGACTTATATATGCGAATGCACATGAATAGAGCGTCTTGATTCGCTTGACGCTGCTG”, 8.21.
As for “TCCGGCTACTAGCTCCACCCACTTCAGGCCTTGTAGGTCTTGATTCGCTTGACGCTGCTG”, the binding signal (log fluorescence intensity) came out at 8.1.
For “GATTAATTTCTTCCCTTATTCGCACGTGCCATAACAGTCTTGATTCGCTTGACGCTGCTG”, the binding signal (log fluorescence intensity) came to 8.21.
The result for “TGTCGGGTAAGGGAATGTAGATAACGTGAATGAAAAGTCTTGATTCGCTTGACGCTGCTG” reads 8.12.
For “GATTAATTTCTGCCCTTATTCGCACGTGCCATGACAGTCTTGATTCGCTTGACGCTGCTG” the value was 8.18.
For “CGGAAGTGTCGTAAACATCGGATATCCGGTTCTTCTGTCTTGATTCGCTTGACGCTGCTG” the value was 12; for “TGTCGGGTAAGGGAATGTAGATCACGTGAATGGAAAGTCTTGATTCGCTTGACGCTGCTG”, 8.3; for “TACTGACTCATATATGCGAATGCACATGAATAGACCGTCTTGATTCGCTTGACGCTGCTG”, 8.22.
“CGGAAGTGTCGTAAACGCCGGATATCCGGTTCTTCTGTCTTGATTCGCTTGACGCTGCTG”: the binding signal (log fluorescence intensity) was determined as 13.1.
The result for “GGAAGAAGGCCCAGGGTAACACCGGAAGTGGGCTTAGTCTTGATTCGCTTGACGCTGCTG” reads 12.1; that for “GCTGCTGCGGTGCAAACCCCACCGGATGTGACCCCGGTCTTGATTCGCTTGACGCTGCTG”, 10.6; that for “CAGCATAGGACTTCTTCTCTGAAGCAATTGATAACCGTCTTGATTCGCTTGACGCTGCTG”, 8.15.
Turning to “CGGAAGTGTCGTAAACGTCGGATATCCGGCTCTTCTGTCTTGATTCGCTTGACGCTGCTG”, the binding signal (log fluorescence intensity) is 10.7.
The result for “CGGAAGTGTCATAAACGTCGGATATCCGGTTCTTCTGTCTTGATTCGCTTGACGCTGCTG” reads 11.7; that for “TGTCAGGTAAGGGAATGTAGATCACGTGAATGAAAAGTCTTGATTCGCTTGACGCTGCTG”, 8.26; that for “GAATAATTTCTGCCCTTATTCGCACGTGCCATAACAGTCTTGATTCGCTTGACGCTGCTG”, 8.37.
“CGGAAGTGTCGTAAACGTCGGATATCCGGTTCTTCCGTCTTGATTCGCTTGACGCTGCTG”: the binding signal (log fluorescence intensity) was found to be 12.1.
For “ACCGGCTACCAGCTCCACCCACTTCAGGCCTTGTAGGTCTTGATTCGCTTGACGCTGCTG” the value was 8.18; for “GCTGCTTCGGTGCATACCCCACCGGATGTGACCCCGGTCTTGATTCGCTTGACGCTGCTG”, 10.3.
For the sequence “CAGCATAGGACTTCTTCCTTGAAGCAATTGATAACCGTCTTGATTCGCTTGACGCTGCTG”, the binding signal (log fluorescence intensity) amounted to 8.31.
The result for “TAAACGGAAGACGGTTGTGGTAGTTCCGGGTATTAAGTCTTGATTCGCTTGACGCTGCTG” reads 10.1; that for “GTGTATAGGATCCTATCCAACACACGTGTTAAAATGGTCTTGATTCGCTTGACGCTGCTG”, 8.11.
Regarding “TACGGCTACCAGCTCCACCCACTTCAGGCCTTGTAGGTCTTGATTCGCTTGACGCTGCTG”, the binding signal (log fluorescence intensity) is 8.26.
For “CACAATTTTTACAGTTATGTAGCACGCGTAACTCCTGTCTTGATTCGCTTGACGCTGCTG” the value was 8.33; for “TCTCGGGTAAGGGAATGTAGATCACGTGAATGAAAAGTCTTGATTCGCTTGACGCTGCTG”, 8.16; for “TACTGACTTATATATGCGAATGCACACGAATAGACCGTCTTGATTCGCTTGACGCTGCTG”, 8.46.
For “TCAAGGGAAGACGGTTGTGGTAGTTCCGGGTATTAAGTCTTGATTCGCTTGACGCTGCTG”, the binding signal (log fluorescence intensity) turned out to be 8.62.
For “CCGGGACTTGACCCAACTCTGCCACGTGGGTCGTTTGTCTTGATTCGCTTGACGCTGCTG” the value was 8.32.
For “GATTAATTTCTGCCCTTATTCGCACGTGCCATTACAGTCTTGATTCGCTTGACGCTGCTG” the value was 8.11.
The result for “GTGTATAGGATCTCATCCAACACACGTGTTAAAATGGTCTTGATTCGCTTGACGCTGCTG” reads 8.18; that for “CATCATAGGACTTCTTCCCTGAAGCAATTGATAACCGTCTTGATTCGCTTGACGCTGCTG”, 8.16; that for “CAGCATAGGACTTCTTCCCTGAAGCAACTGATAACCGTCTTGATTCGCTTGACGCTGCTG”, 8.3.
As to “TAAAGGGAAGACGGTTGTGGTAGTTCAGGGTATTAAGTCTTGATTCGCTTGACGCTGCTG”, the binding signal (log fluorescence intensity) was 8.12.
For “GATTAATTTCTGCCCTTATTCGCACGTGCCTTAACAGTCTTGATTCGCTTGACGCTGCTG” the value was 8.2; for “TATCGGGTAAGGGAATGTAGATCACGTGAATGAAAAGTCTTGATTCGCTTGACGCTGCTG”, 8.13; for “TCCGGCTACCAGCTCCACCCACTCCAGGCCTTGTAGGTCTTGATTCGCTTGACGCTGCTG”, 8.29.
On to “GCTGCTGCGGTGCATACCCCACTGGATGTGACCCCGGTCTTGATTCGCTTGACGCTGCTG”, for which the binding signal (log fluorescence intensity) amounted to 8.34.
For “CAGCATAGGACTTCTTACCTGAAGCAATTGATAACCGTCTTGATTCGCTTGACGCTGCTG” the value was 8.17; for “GGAAAAAGGCCCAGGGTAACACCGGGAGTGGGCTTAGTCTTGATTCGCTTGACGCTGCTG”, 8.24.
On to “GGAAAAAGGCCCAGGGTAACTCCGGAAGTGGGCTTAGTCTTGATTCGCTTGACGCTGCTG”, for which the binding signal (log fluorescence intensity) was found to be 10.5.
“CGGAAGTGTCGTAAACGTCGGATGTCCGGTTCTTCTGTCTTGATTCGCTTGACGCTGCTG”: the binding signal (log fluorescence intensity) came to 9.65.
The result for “GGAAAAAGGGCCAGGGTAACACCGGAAGTGGGCTTAGTCTTGATTCGCTTGACGCTGCTG” reads 12; that for “GCTGCTGCGGTGCACACCCCACCGGATGTGACCCCGGTCTTGATTCGCTTGACGCTGCTG”, 10.3.
